Measurements published in PubChem BioAssay AID651820 (National Center for Advancing Translational Sciences (NCATS), 2012).
Screen size: about 340,000 compounds; about 12,000 (3.5%) were called active. Inconclusive means that the source gave no clear call. Such entries were picked first, then a sample of the others. The call rests on the fitted dose curve; in most records, active means well fitted inhibition curve with a large enough effect; inconclusive means small, poorly fitted or top-dose-only effect, or another doubt; inactive means no such curve, though single readings can be large or run the other way. Potencies of inconclusive entries are left out as doubtful fits.

test: qHTS Assay for Inhibitors of Hepatitis C Virus (HCV); conditions: Huh7.5.1 HCVcc-Cre (HCVcc is cell-culture hepatitis C virus) infection, luciferase reporter, 44 h; activity change, negative = inhibition: at 41.8 µM (top of the series) unless noted
Outline: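 Seed cells (1,000/well) for 4 h; treat with compound and infect with HCVcc-Cre, moi about 0.5. Incubate 44 h, then detect luciferase activity.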
On the % scale 0 is the no-effect control and ±100 the full control effect; potency means the concentration at half of the fitted maximal effect; tags describe the fitted curve by direction and shape.

| SMILES | Potency | activity change, negative = inhibition |
| --- | --- | --- |
| COc1ccc(N2CCN(S(=O)(=O)c3ccc(OC)cc3)CC2)cc1 | inconclusive [inhibitor, single point] |  |
| Cc1ccc(NC(=S)NCc2ccccc2)cc1S(=O)(=O)N1CCCCC1 | inconclusive [inhibitor, partial curve] |  |
| COCc1cccc(C2=CC(=O)C[C@H](c3ccc(OC)cc3)C2)c1 | inconclusive [inhibitor, single point] |  |
| COc1ccc(/C=C2\SC(=O)N(CCNC(=O)C3=COCCO3)C2=O)cc1 | inconclusive [inhibitor, partial curve] |  |
| O=c1cc(N2CCCC2)c2ccccc2o1 | active: 11.2 µM |  |
| CC1(C(=O)OCC(=O)Nc2nnc(-c3ccccc3)o2)CC1(Cl)Cl (stereo not given) |  | inactive: -3.94% |
| CSCCC1NC2(C(=O)Nc3c(C)cc(Cl)cc32)[C@@H]2C(=O)N(C3CCCC3)C(=O)[C@H]12 (stereo not given in full) | inconclusive [inhibitor, single point] |  |
| COc1ccc(Cn2c(=O)c3[nH]cnc3n(-c3ccccc3C)c2=O)cc1 | inconclusive [inhibitor, full curve, poor fit] |  |
| COc1ccc(C(=O)Nc2ccc(Cl)cc2C(=O)NCc2ccco2)cc1 | inconclusive [inhibitor, full curve] |  |
| CCOC(=O)Cn1c(C(F)(F)F)nc2nc(Cl)c(Cl)nc21 | inconclusive [inhibitor, single point] |  |
| OC(COc1ccc2ccccc2c1Br)Cn1ccnc1 (stereo not given) | inconclusive [inhibitor, partial curve] |  |
| CCOC(=O)Cn1cnc2c(cnn2-c2ccc(OC)cc2)c1=O |  | inactive: -3.37% |
| COC(=O)c1ccc2nc(Nc3nc4c(F)cc(F)cc4s3)sc2c1 |  | inactive: 2.32% |
| CCCC(CCC)C(=O)Nc1ccc2c(c1)N(C(=O)CN1CCN(C)CC1)c1ccccc1CC2 | inconclusive [inhibitor, partial curve] |  |
| CCOc1cc(N2CCOCC2)c(OCC)cc1NC(=O)Cc1cccc2ccccc12 | active: 14.1 µM |  |
| CCOc1ccc(NC(=O)C2CCC(N3C(=O)C4CC=CCC4C3=O)CC2)cc1 (stereo not given) | inconclusive [inhibitor, partial curve] |  |
| Cc1ccc2nc(C3CCN(S(=O)(=O)c4ccc5ccccc5c4)CC3)[nH]c2c1 | inconclusive [inhibitor, single point] |  |
| CCOC(=O)c1cnn(Cc2ccc(C)cc2)c1N |  | inactive: -5.79% |
| CCNC(=O)c1ccc2c(c1)C1C3CCC(C3)C1C(c1ccccc1)N2 (stereo not given) |  | inactive: 10.1% |
| Cc1ccc(S(=O)(=O)NCCc2cn3nc(C)c(C)nc3n2)cc1C | inconclusive [inhibitor, single point] |  |
